Measured values published in PubChem BioAssay AID1030 (National Center for Advancing Translational Sciences (NCATS), 2008).
The campaign covered roughly 220,000 compounds. About 16,000 (7.3%) were called active. The inconclusive results got no clear call from the source; some entries with a clear call stand among them for comparison. Calls follow the shape of the dose curve; as a rule, active = well fitted inhibition curve with a large enough effect (not every such curve was filed as active); inconclusive = small, poorly fitted or top-dose-only effect, or another doubt; inactive = no such curve, though single readings can be large or run the other way. Potencies of inconclusive entries are left out as doubtful fits.

Molecular target: Aldehyde dehydrogenase 1A1 (Homo sapiens) (UniProt P00352)
Sequence of UniProt P00352 (P00352 whole entry, looked up): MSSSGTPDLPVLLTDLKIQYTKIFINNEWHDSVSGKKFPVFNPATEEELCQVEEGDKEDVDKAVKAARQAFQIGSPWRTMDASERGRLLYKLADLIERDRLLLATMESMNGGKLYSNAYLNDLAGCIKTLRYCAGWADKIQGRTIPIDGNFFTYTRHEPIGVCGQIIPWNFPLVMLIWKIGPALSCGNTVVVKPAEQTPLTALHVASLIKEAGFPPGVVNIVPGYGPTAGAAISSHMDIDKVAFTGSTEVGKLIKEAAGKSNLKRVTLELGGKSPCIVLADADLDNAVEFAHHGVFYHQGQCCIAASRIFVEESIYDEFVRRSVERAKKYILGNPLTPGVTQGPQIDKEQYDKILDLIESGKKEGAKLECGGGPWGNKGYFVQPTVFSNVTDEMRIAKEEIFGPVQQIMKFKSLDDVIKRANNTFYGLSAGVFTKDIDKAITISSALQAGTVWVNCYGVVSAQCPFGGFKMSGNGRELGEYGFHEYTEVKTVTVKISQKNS
Experiment: qHTS Assay for Inhibitors of Aldehyde Dehydrogenase 1 (ALDH1A1);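 as to activity, negative = inhibition: plate controls were no enzyme wells and a reference inhibitor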
Conditions: Purified ALDH1A1, NADH fluorescence, propionaldehyde substrate; series mostly up to 75.3 µM
Potency is read from the fitted curve at half-maximal effect; tags tell the direction and shape of the fitted curve.

| SMILES | Potency | activity, negative = inhibition |
| --- | --- | --- |
| COc1ccc(OC)c(-c2cc(C(=O)Nc3c(C)nn(Cc4ccc(Cl)cc4)c3C)no2)c1 | inconclusive [inhibitor, single point] |  |
| O=C(Nc1nc(-c2ccc(Cl)s2)cs1)c1cccs1 | inconclusive [inhibitor, single point] |  |
| COc1ccc(CNC(=O)c2cc3c(=O)[nH]c4ccccc4c3n2C)cc1 | inconclusive [inhibitor, partial curve, poor fit] |  |
| COc1cccc(OC)c1-c1nn2c(-c3ccccc3Cl)nnc2s1 | inconclusive [inhibitor, partial curve] |  |
| C/C(N)=C(/C#N)C(=O)COC(=O)C1CCC(C(C)(C)C)CC1 (stereo unspecified) | inconclusive [inhibitor, single point] |  |
| CCC(C(=O)Nc1cc(Cl)c(OC)cc1OC)c1ccccc1 (stereo unspecified) | active: 20 µM |  |
| COc1cc(C(=O)N(Cc2cccnc2)Cc2cc3cc4c(cc3[nH]c2=O)OCCO4)cc(OC)c1OC | inconclusive [inhibitor, partial curve] |  |
| COc1ccc(NC(=O)C(c2ccc(OC)cc2)N(Cc2ccco2)C(=O)CC2NC(=O)NC2=O)cc1 (stereo unspecified) | inactive |  |
| CCOC(=O)C1(CCCc2ccccc2)CCN(C(=O)CCc2cnccn2)CC1 | active: 3.98 µM |  |
| COc1ccc(/C=N/c2oc(-c3ccccc3)cc2C#N)cc1OC | inconclusive [inhibitor, full curve] |  |
| CCCN(CCC)C1CC(=O)N(Cc2ccccc2)C1=O (stereo unspecified) | active: 11.2 µM |  |
| CC(C)(CCc1nc2ccccc2[nH]1)C(=O)O |  | inactive: 1.71% [at 13.5 µM] |
| FC(F)Oc1ccc(NC(=S)Nc2ccc3cn[nH]c3c2)cc1 | inconclusive [inhibitor, single point] |  |
| COc1ccc(NC(=O)C2CCCCN2N)cc1OCC(C)C (stereo unspecified) | inactive |  |
| Fc1cccc(Cl)c1Cn1nnc(-c2ccc3c(c2)OCO3)n1 | inconclusive [inhibitor, partial curve] |  |
| COc1ccccc1Nc1nnc(SCC(=O)N2CCCC2)s1 | inconclusive [inhibitor, single point] |  |
| O=C(CN1CCCN(Cc2ccc(F)cc2Cl)C1=O)NC1CCCCCC1 | inconclusive [inhibitor, single point] |  |
| CCOC(=O)c1cnc(Nc2nc3ccccc3o2)nc1C | inconclusive [inhibitor, partial curve] |  |
| Cc1ccc(-n2c(C)cc(C(=O)NS(=O)(=O)c3ccc(C)cc3)c2C)cc1 | inactive |  |
| CCCNC(=S)N1CCC(C(=O)c2ccc(OC)cc2)CC1 | inactive |  |
| COc1ncc2nc(-c3ccc(Cl)cc3)c(=O)n(Cc3cccs3)c2n1 | inconclusive [inhibitor, single point] |  |
| Cc1cc(NC(=O)CCC2CCCCC2)no1 | inconclusive [inhibitor, single point] |  |
| CCn1c(SCC(=O)N/N=C/c2cc(OC)c(O)c(OC)c2)nc2ccccc21 | inconclusive [inhibitor, single point] |  |
| O=C(Nc1ccc(S(=O)(=O)N2CCOCC2)cc1)c1ccc(=O)[nH]c1 | inactive |  |
| COc1ccc(-n2c(C)ccc2C)c([N+](=O)[O-])c1 | inconclusive [inhibitor, single point] |  |
| Cc1c(C(=O)OC(C)C)sc(N)c1C(=O)OC(C)C | inconclusive [inhibitor, single point] |  |

| SMILES | Potency | activity, negative = inhibition |
| --- | --- | --- |
| Cc1cc(Nc2ccc(C)c(C)c2)n2nc(C)nc2n1 | inconclusive [inhibitor, partial curve] |  |
| NS(=O)(=O)c1ccc(NC(=O)CSc2nc3ccccc3[nH]2)cc1 | inconclusive [inhibitor, single point] |  |
| CCOC(CNC(=O)c1ccc2c(c1)ncn2-c1cccc(F)c1)OCC | inactive |  |
| CCOc1ccc(C2=Nc3ccc(Br)cc3C(c3ccc(N4CCOCC4)cc3)=NN2)cc1 | inactive |  |
| Cn1c(=O)c(=O)n(C)c2cc(S(=O)(=O)NCc3ccc(Cl)cc3)ccc21 | inconclusive [inhibitor, partial curve] |  |
| CCNC(=S)N1CCN(CCN=CC2=C(O)CC(c3ccco3)CC2=O)CC1 (stereo unspecified) | inactive |  |
| CCOCCCNC(=O)C(c1ccccc1)N(Cc1ccc2c(c1)OCO2)C(=O)c1ccccc1O (stereo unspecified) | active: 10 µM |  |
| CCCN1C2CCCC1CC(NC(=S)Nc1cc(C)ccc1C)C2 (stereo unspecified) | inactive |  |
| COc1ccc2c(c1)CCc1sc(NC(=O)c3ccco3)nc1-2 | active: 22.4 µM |  |
| CC(=O)c1nnn(-c2nc(N)nc(N(c3ccccc3)c3ccccc3)n2)c1C | inconclusive [inhibitor, single point] |  |
| Cc1ccc(/C=C/C(=O)OCC(=O)NCCN2C(=O)CSC2=O)o1 | inconclusive [inhibitor, single point] |  |
| CCC(NC(=O)C1(C)CC1(Br)Br)c1ccc(C)cc1 (stereo unspecified) | inactive |  |
| Nc1nnc(SCCOc2cccc(Br)c2)s1 | inconclusive [inhibitor, full curve] |  |
| O=C(Nc1ccc(F)cc1F)c1cc(=O)n(-c2ccccc2)c(=O)[nH]1 | inconclusive [inhibitor, partial curve] |  |
| CCCC(=O)NCCc1ccc(S(N)(=O)=O)cc1 | active: 4.47 µM |  |
| COc1ccccc1Nc1nnc(SCc2cc(=O)n3cc(C)ccc3n2)s1 | inactive |  |
| Cc1nnc(C)n1/N=C/c1ccc2c(c1)OCCO2 | inconclusive [inhibitor, partial curve] |  |
| COCC(C)NC(=S)N1CCN(c2ccccc2Cl)CC1 (stereo unspecified) | inconclusive [inhibitor, single point] |  |
| COc1ccc(CNC(=O)C2CCCN2CCc2ccccc2)cc1OC (stereo unspecified) | inconclusive [inhibitor, partial curve] |  |
| Oc1ccc(-c2nc3ccccc3s2)cc1 | inconclusive [inhibitor, partial curve] |  |
| CCOCCCNC(=S)N1CCN(Cc2ccco2)CC1 | active: 14.1 µM |  |
| CC1(C)CC(=O)c2c(-c3cccs3)n[nH]c2C1 | inconclusive [inhibitor, single point] |  |
| Cc1ccccc1CSCC(=O)c1c(N)n(CC(C)C)c(=O)n(C)c1=O | active: 28.2 µM |  |
| Cc1cc(C(C)(C)C)nc2[nH]n(-c3ccccc3)c(=O)c12 | inactive |  |
| CCOC(=O)c1sc2ncnc(NCc3ccco3)c2c1C | inconclusive [inhibitor, partial curve] |  |
| O=C(/C=C/c1ccccc1)c1ccc(O)cc1 | inactive |  |

| SMILES | Potency | activity, negative = inhibition |
| --- | --- | --- |
| CN1CCN(C(=O)c2cccc(COc3cc(Cl)ccc3Cl)c2)CC1 | active: 10 µM |  |
| CCOCCCNC(=O)C(NC(=O)CNC(C)=O)c1ccc(Cl)cc1 (stereo unspecified) | inconclusive [inhibitor, single point] |  |
| NNC(=O)c1nn(-c2ccc(Cl)cc2)cc1O | inconclusive [inhibitor, single point] |  |
| CCOc1ccc(C2CC(c3cccc(OC)c3)Nc3ncnn32)cc1 (stereo unspecified) | inactive |  |
| O=C(Nc1ccc(CN2CCOCC2)cc1)c1ccc(-c2cccc(Cl)c2)o1 | inconclusive [inhibitor, partial curve] |  |
| COc1ccccc1N1C(=O)c2ccccc2NC1c1ccncc1 (stereo unspecified) | inconclusive [inhibitor, single point] |  |
| CCC(C)(C(=O)NC1CCCCC1)N(C(=O)CNC(=O)c1ccccc1)c1c(C)n(C)n(-c2ccccc2)c1=O (stereo unspecified) | inactive |  |
| COC(=O)c1ccc(-c2nc3cc(Cl)c(N)cc3s2)cc1 | inactive |  |
| Cc1cccc(S(=O)(=O)Nc2ccc(C)c3c2OC(C)(C)C3)c1 | inconclusive [inhibitor, single point] |  |
| COc1ccc(/C=C2\CCCC(C(=O)C(F)(F)F)=C2O)cc1OC | active: 0.126 µM |  |
| CCc1c(C)c(C#N)c2nc3ccccc3n2c1NCc1ccco1 | inconclusive [inhibitor, single point] |  |
| O=C(NCc1ccc(Cl)cc1Cl)C1CCN(S(=O)(=O)c2ccc3c(c2)OCCCO3)CC1 | inconclusive [inhibitor, single point] |  |
| CCN1/C(=C2\OC(=S)N(C)C2=O)C=Cc2ccccc21 | inactive |  |
| O=Cc1ccccc1OS(=O)(=O)c1ccccc1 | active: 12.6 µM |  |
| CN(C)S(=O)(=O)c1cc(NC(=O)CN2CCCc3ccccc32)ccc1Cl | active: 8.91 µM |  |
| Cc1cccc(-n2c(CNC(=O)c3ccc(S(=O)(=O)N(C)C)cc3)nnc2SCC(=O)Nc2ccc(F)cc2)c1 | active: 0.447 µM |  |
| Cc1cccc(/C(N)=N/OC(=O)CCc2ccccc2)c1 | inactive |  |
| Cc1ccccc1-n1nnnc1Sc1nnnn1-c1ccccc1 | active: 25.1 µM |  |
| O=C(O)C1CCN(c2ccccc2[N+](=O)[O-])CC1 | inactive |  |
| Cn1nc(C(=O)Nc2cccc(S(N)(=O)=O)c2)c2ccccc2c1=O | inconclusive [inhibitor, single point] |  |
| O=c1cc(N2CCC(Cc3ccccc3)CC2)[nH]c(=O)n1C1CCCCC1 | inconclusive [inhibitor, full curve] |  |
| Nc1[nH]c(=O)ncc1F | inactive |  |
| Cc1ccc(S(=O)(=O)Nc2ccc(=O)n(Cc3ccc(Cl)c(Cl)c3)c2)cc1 | inconclusive [inhibitor, partial curve] |  |
| COc1ccc(OC)c(S(=O)(=O)Nc2ccc(C)c(C)c2)c1 | inconclusive [inhibitor, single point] |  |
